{"source": "the supplement of paper PMC3334620", "note": "In all, about 33,000 sequences were measured (“E-score (-0.5 to 0.5)”: median about -0.054, highest 2% from about 0.39 on). The list shows a part of the results.", "data": [{"molecular_target": "Ylr278c (UniProt Q05854)", "test": "PBM E-score (8-mer binding enrichment) (E-score (-0.5 to 0.5)); higher = stronger / more preferred TF binding; most listed sequences are background and not binding sites", "conditions": "protein concentration: 200 nM; construct: GST-DNA-binding domain", "outline": "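PURExpress in vitro transcription/translation supplied GST-tagged yeast transcription factors, either full-length or DNA-binding domain. Applied at about 100-200 nM to universal all-10-mer Agilent arrays double-stranded by primer extension, the bound protein was detected with fluorescent anti-GST. E-scores, modified Wilcoxon-Mann-Whitney statistics, were given by the Universal PBM Analysis Suite to ungapped eight-base words pooled with their reverse complements after masliner normalisation.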", "values": [{"sequence": "AGTGTTGG", "PBM E-score": 0.034}, {"sequence": "GAGGCGCC", "PBM E-score": 0.0297}, {"sequence": "CGTTGTTA", "PBM E-score": 0.012}, {"sequence": "CGAGTACG", "PBM E-score": -0.0729}, {"sequence": "CAACTACG", "PBM E-score": -0.00049}, {"sequence": "TAGGAAGA", "PBM E-score": -0.224}, {"sequence": "AAATATCG", "PBM E-score": 0.152}, {"sequence": "CGCTGGGA", "PBM E-score": -0.0721}, {"sequence": "ACCAAGGT", "PBM E-score": -0.0132}, {"sequence": "TCTGTAAA", "PBM E-score": 0.0808}, {"sequence": "ACCATCCT", "PBM E-score": -0.31}, {"sequence": "ACTCAACA", "PBM E-score": -0.134}, {"sequence": "GGACCGCA", "PBM E-score": 0.238}, {"sequence": "CGTGAGGA", "PBM E-score": -0.0251}, {"sequence": "CTTACCGC", "PBM E-score": 0.167}, {"sequence": "AGACGCAG", "PBM E-score": -0.164}, {"sequence": "CTACCAAC", "PBM E-score": -0.134}, {"sequence": "AGTTACCC", "PBM E-score": 0.0239}, {"sequence": "GCCAATGA", "PBM E-score": -0.237}, {"sequence": "GACGCTGC", "PBM E-score": 0.0259}, {"sequence": "ACTAAAGA", "PBM E-score": -0.145}, {"sequence": "CAGTTTTA", "PBM E-score": -0.16}, {"sequence": "ACCCTAGA", "PBM E-score": -0.268}, {"sequence": "CAGTCCAC", "PBM E-score": -0.265}, {"sequence": "CCAGGTAG", "PBM E-score": -0.135}, {"sequence": "ATCAGGAT", "PBM E-score": -0.018}, {"sequence": "CTTCAAAG", "PBM E-score": -0.164}, {"sequence": "ATGTACAG", "PBM E-score": -0.13}, {"sequence": "CAATTCGA", "PBM E-score": -0.192}, {"sequence": "GCTTATCC", "PBM E-score": 0.136}, {"sequence": "CGACGTAG", "PBM E-score": -0.05}, {"sequence": "ATGTCCAG", "PBM E-score": -0.142}, {"sequence": "AGAGATGC", "PBM E-score": -0.0846}, {"sequence": "ATCCGGAT", "PBM E-score": 0.452}, {"sequence": "ATCCGGTA", "PBM E-score": 0.294}, {"sequence": "AGAATTTC", "PBM E-score": 0.0325}, {"sequence": "ACCGTACG", "PBM E-score": -0.186}, {"sequence": "GGATCGAC", "PBM E-score": 0.174}, {"sequence": "ACAACCCT", "PBM E-score": -0.188}, {"sequence": "ATTTGAAA", "PBM E-score": -0.0475}, {"sequence": "ACATCAAA", "PBM E-score": 0.0163}, {"sequence": "CCAAAGGA", "PBM E-score": -0.218}, {"sequence": "CACCGGCG", "PBM E-score": 0.383}, {"sequence": "AATACTGT", "PBM E-score": -0.00119}, {"sequence": "AACCTGAT", "PBM E-score": -0.222}, {"sequence": "CCAGCTTA", "PBM E-score": -0.153}, {"sequence": "AATATAAG", "PBM E-score": 0.0801}, {"sequence": "GGCAGAGA", "PBM E-score": -0.0217}, {"sequence": "TGACGCAA", "PBM E-score": -0.115}, {"sequence": "AACTGCAT", "PBM E-score": -0.156}, {"sequence": "ACGAATCA", "PBM E-score": -0.124}, {"sequence": "CGGCCATC", "PBM E-score": 0.194}, {"sequence": "AATATGCT", "PBM E-score": -0.0879}, {"sequence": "CAATCCTC", "PBM E-score": -0.124}, {"sequence": "AGTGGGGG", "PBM E-score": -0.151}, {"sequence": "AGAAGTTG", "PBM E-score": -0.264}, {"sequence": "TAATGTGA", "PBM E-score": -0.177}, {"sequence": "ATGGAGCC", "PBM E-score": -0.299}, {"sequence": "CAAGGCAC", "PBM E-score": -0.23}, {"sequence": "GTAGTTCA", "PBM E-score": 0.05}, {"sequence": "CCCCGGGC", "PBM E-score": 0.342}, {"sequence": "CTGTGGAC", "PBM E-score": -0.27}, {"sequence": "TATAAGCA", "PBM E-score": -0.0654}, {"sequence": "GTACCTGA", "PBM E-score": -0.142}, {"sequence": "AAGCACTG", "PBM E-score": -0.138}, {"sequence": "AACTCCTA", "PBM E-score": 0.23}, {"sequence": "AGATATTG", "PBM E-score": -0.0174}, {"sequence": "GAGGACTC", "PBM E-score": -0.226}, {"sequence": "CCGTTTGC", "PBM E-score": 0.193}, {"sequence": "CAAATCGA", "PBM E-score": -0.268}, {"sequence": "ATACGTTC", "PBM E-score": -0.26}, {"sequence": "GGTGCTTA", "PBM E-score": -0.154}, {"sequence": "ACTCTATC", "PBM E-score": -0.00278}, {"sequence": "GACGCCGC", "PBM E-score": 0.256}, {"sequence": "ACCCGGCA", "PBM E-score": 0.174}, {"sequence": "CCGCAATA", "PBM E-score": 0.195}, {"sequence": "CAACAAAG", "PBM E-score": -0.189}, {"sequence": "ACAGTACG", "PBM E-score": -0.0602}, {"sequence": "GATACGAA", "PBM E-score": -0.168}, {"sequence": "ATGCGCAT", "PBM E-score": 0.0738}, {"sequence": "CGATGAGC", "PBM E-score": 0.0322}, {"sequence": "AATAGTAC", "PBM E-score": -0.0477}, {"sequence": "ATCGGGCG", "PBM E-score": 0.241}, {"sequence": "CGTTTGAA", "PBM E-score": -0.0173}, {"sequence": "CGTACGAG", "PBM E-score": -0.0678}, {"sequence": "GCGTGAAC", "PBM E-score": -0.166}, {"sequence": "CTATGAAG", "PBM E-score": -0.176}, {"sequence": "AAGGTGGC", "PBM E-score": -0.103}, {"sequence": "GCTCTGTA", "PBM E-score": -0.213}, {"sequence": "AGTAAAAA", "PBM E-score": 0.0348}, {"sequence": "AGTAGGGA", "PBM E-score": -0.143}, {"sequence": "CTACGCTC", "PBM E-score": -0.0331}, {"sequence": "ATCTCCTC", "PBM E-score": 0.0398}, {"sequence": "AATGAACC", "PBM E-score": -0.218}, {"sequence": "ACCACCGT", "PBM E-score": -0.0984}, {"sequence": "AATATTCC", "PBM E-score": 0.357}, {"sequence": "ACGGGGGG", "PBM E-score": -0.256}, {"sequence": "AGCCTCAC", "PBM E-score": -0.252}, {"sequence": "CCGAATGA", "PBM E-score": 0.221}, {"sequence": "CGGCGCAC", "PBM E-score": 0.269}, {"sequence": "ATTTTGCG", "PBM E-score": 0.0406}, {"sequence": "GCGCCCCC", "PBM E-score": -0.0778}, {"sequence": "CCGTCGAG", "PBM E-score": 0.115}, {"sequence": "AAATAATT", "PBM E-score": 0.114}, {"sequence": "AAGGGTTA", "PBM E-score": -0.15}, {"sequence": "AGAAGTCA", "PBM E-score": -0.0826}, {"sequence": "ATACTGTC", "PBM E-score": -0.111}, {"sequence": "AGGCGCGC", "PBM E-score": 0.0748}, {"sequence": "CTCCTGCA", "PBM E-score": -0.217}, {"sequence": "AGAGAACG", "PBM E-score": -0.231}, {"sequence": "ATGTTTAA", "PBM E-score": -0.211}, {"sequence": "CGACAGAA", "PBM E-score": 0.0827}, {"sequence": "ACAAAGGG", "PBM E-score": -0.121}, {"sequence": "CGGCTACG", "PBM E-score": 0.187}, {"sequence": "GAGTCTAA", "PBM E-score": -0.119}, {"sequence": "CATCCGAG", "PBM E-score": 0.193}, {"sequence": "GGCACACA", "PBM E-score": -0.0291}, {"sequence": "CGTGTTAA", "PBM E-score": -0.223}, {"sequence": "GCTTTCAA", "PBM E-score": -0.0643}, {"sequence": "CGTGCCAC", "PBM E-score": -0.153}, {"sequence": "ATTGCTAG", "PBM E-score": -0.0899}, {"sequence": "ACAGGCTC", "PBM E-score": -0.238}, {"sequence": "GGAGCTCA", "PBM E-score": 0.0409}, {"sequence": "CGGTTCAA", "PBM E-score": 0.127}, {"sequence": "GGGGTAAC", "PBM E-score": -0.104}, {"sequence": "AGCGTGGA", "PBM E-score": -0.0895}, {"sequence": "GCCAGGGA", "PBM E-score": -0.212}, {"sequence": "ATCACAAA", "PBM E-score": -0.118}, {"sequence": "CACAGCCG", "PBM E-score": 0.171}, {"sequence": "AGTCCTTA", "PBM E-score": -0.226}, {"sequence": "CCGTTAAA", "PBM E-score": 0.0608}, {"sequence": "CTCAGAAC", "PBM E-score": -0.156}, {"sequence": "AACATCGA", "PBM E-score": -0.198}, {"sequence": "CAGGTCGG", "PBM E-score": 0.0287}, {"sequence": "ACCACTTA", "PBM E-score": -0.0492}, {"sequence": "GCAGGAGA", "PBM E-score": 0.0544}, {"sequence": "CTATCCGC", "PBM E-score": 0.215}, {"sequence": "GACCCAGC", "PBM E-score": -0.272}, {"sequence": "CTTATTGA", "PBM E-score": -0.0634}, {"sequence": "ATACTACG", "PBM E-score": -0.017}, {"sequence": "CAGCCATC", "PBM E-score": -0.149}, {"sequence": "AGCGGGCG", "PBM E-score": 0.111}, {"sequence": "ACCCGTAT", "PBM E-score": 0.0066}, {"sequence": "GCGTCTAC", "PBM E-score": -0.0829}, {"sequence": "AGATTCTA", "PBM E-score": "-9e-05"}, {"sequence": "AATTAAAC", "PBM E-score": 0.0285}, {"sequence": "CAAAGTAC", "PBM E-score": -0.303}, {"sequence": "CACGAATA", "PBM E-score": -0.202}, {"sequence": "AGGCTTAG", "PBM E-score": -0.152}, {"sequence": "GCAAGGAA", "PBM E-score": 0.035}, {"sequence": "AGATGGGC", "PBM E-score": 0.115}, {"sequence": "TAGTAATA", "PBM E-score": -0.158}, {"sequence": "ACTACCAT", "PBM E-score": -0.233}, {"sequence": "ACTAGGGA", "PBM E-score": -0.13}, {"sequence": "AAGCTTAT", "PBM E-score": -0.103}, {"sequence": "AACAACAC", "PBM E-score": -0.0906}, {"sequence": "AAGAGACT", "PBM E-score": -0.101}, {"sequence": "CCATTCGG", "PBM E-score": 0.107}, {"sequence": "CTCGGTAA", "PBM E-score": 0.0905}, {"sequence": "AGATATCT", "PBM E-score": -0.165}, {"sequence": "CGAAACCA", "PBM E-score": -0.0177}, {"sequence": "ACCGATAT", "PBM E-score": 0.0583}, {"sequence": "CATCAATA", "PBM E-score": -0.128}, {"sequence": "AACATTAC", "PBM E-score": -0.106}, {"sequence": "CGAACCCG", "PBM E-score": 0.224}, {"sequence": "CAATAGGA", "PBM E-score": -0.115}, {"sequence": "ACAAACGC", "PBM E-score": 0.0734}, {"sequence": "ACGCCGAA", "PBM E-score": 0.336}, {"sequence": "GTTAAGTA", "PBM E-score": -0.13}, {"sequence": "CTCATATA", "PBM E-score": -0.0765}, {"sequence": "CGCATCCC", "PBM E-score": 0.0915}, {"sequence": "AATATCGA", "PBM E-score": -0.0141}]}]}
